# Reference: the supplement of paper PMC8728848
# This is one part of the list.
# B1: UEA-I (Ulex europaeus), P22972 (protein)
# chain: SDDLSFKFKNFSQNGKDLSFQGDASVIETGVLQLNKVGNNLPDETGGIARYIAPIHIWNCNTGEVASFITSFSFFMETSANPKAATDGLTFFLAPPDSPLRRAGGYFGLFEDTKDNDSSYQTVAVEFDTIGSPVNFDDPGFPHIGIDVNRVKSINAERWNKRYGLNNVANVEIIYEASSKTLTASLTYPSDQTSISVTSIVDLKEILPEWVSVGFSGGTYIGRQATHEVLNWYFTSNLIN
# Tests used:
# Test in all cases: glycan array binding signal (z-score within array); higher = stronger binding
# Conditions in all cases: glycan notation: IUPAC condensed, linker removed
# [1] = molecular target: Fuc(a1-2)Gal
# Method in brief: (§1)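 The binding signal is a Z-score computed within each array and averaged over linkers. Arrays of the same protein sequence at different concentrations or buffers were also averaged together. Data originate from 3228 arrays in the Consortium for Functional Glycomics database, kept only where the protein sequence was available.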
# [2] = molecular target: Fuc(a1-2)Gal(b1-3)GalNAc
# Method in brief: as §1
# [3] = molecular target: Fuc(a1-2)Gal(b1-3)GalNAc(a1-3)[Fuc(a1-2)]Gal(b1-4)Glc
# Method in brief: as §1
# [4] = molecular target: Fuc(a1-2)Gal(b1-3)GalNAc(a1-3)[Fuc(a1-2)]Gal(b1-4)GlcNAc
# Method in brief: as §1
# [5] = molecular target: Fuc(a1-2)Gal(b1-3)GalNAc(b1-3)Gal
# Method in brief: as §1
# [6] = molecular target: Fuc(a1-2)Gal(b1-3)GalNAc(b1-3)Gal(a1-4)Gal(b1-4)Glc
# Method in brief: as §1
# [7] = molecular target: Fuc(a1-2)Gal(b1-3)GalNAc(b1-4)[Neu5Ac(a2-3)]Gal(b1-4)Glc
# Method in brief: as §1
# [8] = molecular target: Fuc(a1-2)Gal(b1-3)GlcNAc
# Method in brief: as §1
# [9] = molecular target: Fuc(a1-2)Gal(b1-3)GlcNAc(b1-2)Man(a1-3)[Fuc(a1-2)Gal(b1-3)GlcNAc(b1-2)Man(a1-6)]Man(b1-4)GlcNAc(b1-4)GlcNAc
# Method in brief: as §1
# [10] = molecular target: Fuc(a1-2)Gal(b1-3)GlcNAc(b1-2)Man(a1-3)[Fuc(a1-2)Gal(b1-3)GlcNAc(b1-2)Man(a1-6)]Man(b1-4)GlcNAc(b1-4)[Fuc(a1-6)]GlcNAc
# Method in brief: as §1
# [11] = molecular target: Fuc(a1-2)Gal(b1-3)GlcNAc(b1-3)Gal(b1-4)Glc
# Method in brief: as §1
# [12] = molecular target: Fuc(a1-2)Gal(b1-3)GlcNAc(b1-3)GalNAc
# Method in brief: as §1
# [13] = molecular target: Fuc(a1-2)Gal(b1-3)GlcNAc(b1-3)[Fuc(a1-3)[Gal(b1-4)]GlcNAc(b1-6)]Gal(b1-4)Glc
# Method in brief: as §1
# [14] = molecular target: Fuc(a1-2)Gal(b1-3)GlcNAc(b1-3)[Gal(b1-4)GlcNAc(b1-6)]Gal(b1-4)Glc
# Method in brief: as §1
# [15] = molecular target: Fuc(a1-2)Gal(b1-3)GlcNAc(b1-3)[Neu5Ac(a2-6)Gal(b1-4)GlcNAc(b1-6)]Gal(b1-4)Glc
# Method in brief: as §1
# [16] = molecular target: Fuc(a1-2)Gal(b1-3)[Fuc(a1-4)]GlcNAc
# Method in brief: as §1
# [17] = molecular target: Fuc(a1-2)Gal(b1-3)[Fuc(a1-4)]GlcNAc(b1-2)Man(a1-3)[Fuc(a1-2)Gal(b1-3)[Fuc(a1-4)]GlcNAc(b1-2)Man(a1-6)]Man(b1-4)GlcNAc(b1-4)GlcNAc
# Method in brief: as §1
# [18] = molecular target: Fuc(a1-2)Gal(b1-3)[Fuc(a1-4)]GlcNAc(b1-3)[Fuc(a1-3)[Gal(b1-4)]GlcNAc(b1-6)]Gal(b1-4)Glc
# Method in brief: as §1
# [19] = molecular target: Fuc(a1-2)Gal(b1-3)[Fuc(a1-4)]GlcNAc(b1-3)[Gal(b1-4)GlcNAc(b1-6)]Gal(b1-4)Glc
# Method in brief: as §1
# [20] = molecular target: Fuc(a1-2)Gal(b1-4)Glc
# Method in brief: as §1
# [21] = molecular target: Fuc(a1-2)Gal(b1-4)Glc6S
# Method in brief: as §1
# [22] = molecular target: Fuc(a1-2)Gal(b1-4)GlcNAc
# Method in brief: as §1
# [23] = molecular target: Fuc(a1-2)Gal(b1-4)GlcNAc(b1-2)Man(a1-3)[Fuc(a1-2)Gal(b1-4)GlcNAc(b1-2)Man(a1-6)]Man(b1-4)GlcNAc(b1-4)GlcNAc
# Method in brief: as §1
# [24] = molecular target: Fuc(a1-2)Gal(b1-4)GlcNAc(b1-2)Man(a1-3)[Fuc(a1-2)Gal(b1-4)GlcNAc(b1-2)Man(a1-6)]Man(b1-4)GlcNAc(b1-4)[Fuc(a1-6)]GlcNAc
# Method in brief: as §1
# [25] = molecular target: Fuc(a1-2)Gal(b1-4)GlcNAc(b1-2)[Fuc(a1-2)Gal(b1-4)GlcNAc(b1-4)]Man(a1-3)[Fuc(a1-2)Gal(b1-4)GlcNAc(b1-2)Man(a1-6)]Man(b1-4)GlcNAc(b1-4)GlcNAc
# Method in brief: as §1
# [26] = molecular target: Fuc(a1-2)Gal(b1-4)GlcNAc(b1-3)Gal(b1-4)GlcNAc
# Method in brief: as §1
# [27] = molecular target: Fuc(a1-2)Gal(b1-4)GlcNAc(b1-3)Gal(b1-4)GlcNAc(b1-3)Gal(b1-4)GlcNAc
# Method in brief: as §1
# [28] = molecular target: Fuc(a1-2)Gal(b1-4)GlcNAc(b1-3)GalNAc
# Method in brief: as §1
# [29] = molecular target: Fuc(a1-2)Gal(b1-4)GlcNAc(b1-3)[Fuc(a1-2)Gal(b1-4)GlcNAc(b1-6)]GalNAc
# Method in brief: as §1
# [30] = molecular target: Fuc(a1-2)Gal(b1-4)GlcNAc6S
# Method in brief: as §1
# [31] = molecular target: Fuc(a1-2)Gal(b1-4)[Fuc(a1-3)]GlcNAc
# Method in brief: as §1
# [32] = molecular target: Fuc(a1-2)Gal(b1-4)[Fuc(a1-3)]GlcNAc(b1-2)Man(a1-3)[Fuc(a1-2)Gal(b1-4)[Fuc(a1-3)]GlcNAc(b1-2)Man(a1-6)]Man(b1-4)GlcNAc(b1-4)GlcNAc
# Method in brief: as §1
# [33] = molecular target: Fuc(a1-2)Gal(b1-4)[Fuc(a1-3)]GlcNAc(b1-2)[Fuc(a1-2)Gal(b1-4)[Fuc(a1-3)]GlcNAc(b1-4)]Man(a1-3)[Fuc(a1-2)Gal(b1-4)[Fuc(a1-3)]GlcNAc(b1-2)Man(a1-6)]Man(b1-4)GlcNAc(b1-4)GlcNAc
# Method in brief: as §1
# [34] = molecular target: Fuc(a1-2)Gal(b1-4)[Fuc(a1-3)]GlcNAc(b1-3)Gal(b1-4)[Fuc(a1-3)]GlcNAc
# Method in brief: as §1
# [35] = molecular target: Fuc(a1-2)Gal(b1-4)[Fuc(a1-3)]GlcNAc(b1-3)Gal(b1-4)[Fuc(a1-3)]GlcNAc(b1-3)Gal(b1-4)[Fuc(a1-3)]GlcNAc
# Method in brief: as §1
# [36] = molecular target: Fuc(a1-2)Gal(b1-4)[Fuc(a1-3)]GlcNAc(b1-3)GalNAc
# Method in brief: as §1
# [37] = molecular target: Fuc(a1-2)Gal6S(b1-4)Glc
# Method in brief: as §1
# [38] = molecular target: Fuc(a1-2)Gal6S(b1-4)Glc6S
# Method in brief: as §1
# [39] = molecular target: Fuc(a1-2)Gal6S(b1-4)GlcNAc
# Method in brief: as §1
# [40] = molecular target: Fuc(a1-2)[Gal(a1-3)]Gal
# Method in brief: as §1
# [41] = molecular target: Fuc(a1-2)[Gal(a1-3)]Gal(b1-3)GalNAc
# Method in brief: as §1
# [42] = molecular target: Fuc(a1-2)[Gal(a1-3)]Gal(b1-3)GlcNAc
# Method in brief: as §1
# [43] = molecular target: Fuc(a1-2)[Gal(a1-3)]Gal(b1-3)GlcNAc(b1-2)Man(a1-3)[Fuc(a1-2)[Gal(a1-3)]Gal(b1-3)GlcNAc(b1-2)Man(a1-6)]Man(b1-4)GlcNAc(b1-4)GlcNAc
# Method in brief: as §1
# [44] = molecular target: Fuc(a1-2)[Gal(a1-3)]Gal(b1-3)GlcNAc(b1-2)Man(a1-3)[Fuc(a1-2)[Gal(a1-3)]Gal(b1-3)GlcNAc(b1-2)Man(a1-6)]Man(b1-4)GlcNAc(b1-4)[Fuc(a1-6)]GlcNAc
# Method in brief: as §1
# [45] = molecular target: Fuc(a1-2)[Gal(a1-3)]Gal(b1-3)GlcNAc(b1-3)GalNAc
# Method in brief: as §1
binder,measurement,setting,value
B1,glycan array binding signal (z-score),[1],0.604
same,glycan array binding signal (z-score),[2],-0.181
same,glycan array binding signal (z-score),[3],-0.176
same,glycan array binding signal (z-score),[4],-0.187
same,glycan array binding signal (z-score),[5],-0.178
same,glycan array binding signal (z-score),[6],-0.178
same,glycan array binding signal (z-score),[7],-0.19
same,glycan array binding signal (z-score),[8],-0.178
same,glycan array binding signal (z-score),[9],-0.168
same,glycan array binding signal (z-score),[10],-0.179
same,glycan array binding signal (z-score),[11],-0.182
same,glycan array binding signal (z-score),[12],-0.18
same,glycan array binding signal (z-score),[13],-0.185
same,glycan array binding signal (z-score),[14],-0.179
same,glycan array binding signal (z-score),[15],-0.179
same,glycan array binding signal (z-score),[16],-0.184
same,glycan array binding signal (z-score),[17],-0.17
same,glycan array binding signal (z-score),[18],-0.175
same,glycan array binding signal (z-score),[19],-0.167
same,glycan array binding signal (z-score),[20],5.21
same,glycan array binding signal (z-score),[21],8.13
same,glycan array binding signal (z-score),[22],6.42
same,glycan array binding signal (z-score),[23],0.889
same,glycan array binding signal (z-score),[24],-0.179
same,glycan array binding signal (z-score),[25],-0.057
same,glycan array binding signal (z-score),[26],1.54
same,glycan array binding signal (z-score),[27],1.43
same,glycan array binding signal (z-score),[28],-0.174
same,glycan array binding signal (z-score),[29],0.471
same,glycan array binding signal (z-score),[30],6.86
same,glycan array binding signal (z-score),[31],2.53
same,glycan array binding signal (z-score),[32],-0.163
same,glycan array binding signal (z-score),[33],-0.148
same,glycan array binding signal (z-score),[34],-0.127
same,glycan array binding signal (z-score),[35],-0.135
same,glycan array binding signal (z-score),[36],-0.157
same,glycan array binding signal (z-score),[37],4.06
same,glycan array binding signal (z-score),[38],8.02
same,glycan array binding signal (z-score),[39],3.85
same,glycan array binding signal (z-score),[40],-0.182
same,glycan array binding signal (z-score),[41],-0.182
same,glycan array binding signal (z-score),[42],-0.178
same,glycan array binding signal (z-score),[43],-0.181
same,glycan array binding signal (z-score),[44],-0.147
same,glycan array binding signal (z-score),[45],-0.183
